Data from the supplement of paper PMC10369915.
This is one part of the list. Cut-off read from the data, not from the text of the source: active = 3.2 or more and inactive = the rest. Most of these values are background signal.

Molecular target: SHP2 C-SH2 domain E139D
Assay: enrichment score (SH2-bound / input frequency) (ratio); bacterial display of known human phosphotyrosine sites (pTyr-Var adds point mutants) read by sequencing; higher = stronger binding; tyrosines were phosphorylated by kinases first
Conditions: peptide library: pTyr-Var
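Note: displayed peptides selected on beads carrying the immobilized SH2 domain, with library peptides lacking any tyrosine serving as negative controls.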

Enrichment score, inactive:
IGRHAYGDQFR [IDH1_Y135_YF] 0.92
IGLHAYGDQFR [IDH1_Y135_R132L_YF] 0.874
IKIMGYFIRTI [IDS_Y490_S491F] 1.87
DGTVHYVDEKG [IFT140_Y216] 0.675
VVLGSYDRLRV [IFT172_Y260] 0.909
IRTIDYRFTVC [IDS_Y497_W502C_YF] 0.599
IGSHAYGDQYR [IDH1_Y135_R132S] 0.702
IRTIDYRYTVS [IDS_Y497_W502S] 0.98
IRTIDYRYTVW [IDS_Y497] 2.21

Molecular target: SHP2 C-SH2 domain wild-type
Assay: as above
Conditions: peptide library: pTyr-Var

Enrichment score, inactive:
IGRHAYGDQFR [IDH1_Y135_YF] 0.791
IGLHAYGDQFR [IDH1_Y135_R132L_YF] 0.857
IKIMGYFIRTI [IDS_Y490_S491F] 1.91
DGTVHYVDEKG [IFT140_Y216] 0.639
VVLGSYDRLRV [IFT172_Y260] 0.941
IRTIDYRFTVC [IDS_Y497_W502C_YF] 0.916
IGSHAYGDQYR [IDH1_Y135_R132S] 0.675
IRTIDYRYTVS [IDS_Y497_W502S] 0.813
IRTIDYRYTVW [IDS_Y497] 1.82

Molecular target: SHP2 N-SH2 domain L43F
Assay: as above
Conditions: peptide library: pTyr-Var

Enrichment score, inactive:
IGRHAYGDQFR [IDH1_Y135_YF] 0.955
IGLHAYGDQFR [IDH1_Y135_R132L_YF] 0.913
IKIMGYFIRTI [IDS_Y490_S491F] 1.52
DGTVHYVDEKG [IFT140_Y216] 0.581
VVLGSYDRLRV [IFT172_Y260] 1.01
IRTIDYRFTVC [IDS_Y497_W502C_YF] 0.63
IGSHAYGDQYR [IDH1_Y135_R132S] 0.655
IRTIDYRYTVS [IDS_Y497_W502S] 0.966
IRTIDYRYTVW [IDS_Y497] 2.2

Molecular target: SHP2 N-SH2 domain T42A
Assay: as above
Conditions: peptide library: pTyr-Var

Enrichment score, inactive:
IGRHAYGDQFR [IDH1_Y135_YF] 0.766
IGLHAYGDQFR [IDH1_Y135_R132L_YF] 0.77
IKIMGYFIRTI [IDS_Y490_S491F] 1.72
DGTVHYVDEKG [IFT140_Y216] 0.516
VVLGSYDRLRV [IFT172_Y260] 0.864
IRTIDYRFTVC [IDS_Y497_W502C_YF] 0.625
IGSHAYGDQYR [IDH1_Y135_R132S] 0.548
IRTIDYRYTVS [IDS_Y497_W502S] 0.986
IRTIDYRYTVW [IDS_Y497] 2.32

Molecular target: SHP2 N-SH2 domain T52S
Assay: as above
Conditions: peptide library: pTyr-Var

Enrichment score, inactive:
IGRHAYGDQFR [IDH1_Y135_YF] 0.941
IGLHAYGDQFR [IDH1_Y135_R132L_YF] 0.838
IKIMGYFIRTI [IDS_Y490_S491F] 1.87
DGTVHYVDEKG [IFT140_Y216] 0.545
VVLGSYDRLRV [IFT172_Y260] 0.823
IRTIDYRFTVC [IDS_Y497_W502C_YF] 0.518
IGSHAYGDQYR [IDH1_Y135_R132S] 0.598
IRTIDYRYTVS [IDS_Y497_W502S] 1.03
IRTIDYRYTVW [IDS_Y497] 2.02

Molecular target: SHP2 N-SH2 domain wild-type
Assay: as above
Conditions: peptide library: pTyr-Var

Enrichment score, inactive:
IGRHAYGDQFR [IDH1_Y135_YF] 1.19
IGLHAYGDQFR [IDH1_Y135_R132L_YF] 1.14
IKIMGYFIRTI [IDS_Y490_S491F] 1.98
DGTVHYVDEKG [IFT140_Y216] 0.649
VVLGSYDRLRV [IFT172_Y260] 1.08
IRTIDYRFTVC [IDS_Y497_W502C_YF] 0.864
IGSHAYGDQYR [IDH1_Y135_R132S] 0.757
IRTIDYRYTVS [IDS_Y497_W502S] 1.05
IRTIDYRYTVW [IDS_Y497] 1.93
